The other results are listed elsewhere or left out. Most values come without repeats; read them as rough.
system: 501Mel; assay: cell count relative to DMSO control; melanoma cells; higher = more viable cells; conditions: library dose: low library concentration; 72 h
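Also: cell number obtained by counting DAPI-stained nuclei in high-throughput microscope images with image analysis software, screen run in 1,536-well plates.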

Compound | cell count [%]
NC(=O)c1ccc(N(C(N)=O)c2c(F)cccc2F)nc1-c1ccc(F)cc1F + COc1cc(Nc2ncc(F)c(Nc3ccc4c(n3)NC(=O)C(C)(C)O4)n2)cc(OC)c1OC [Tamatinib] (first compound 0.4 µM, partner dose 0.4 µM) | 91.2
CCCCCCCCc1ccc(CCC(N)(CO)CO)cc1 [fingolimod] + CN(C)S(=O)(=O)c1ccc2c(c1)/C(=C/c1cc3c([nH]1)CCCC3)C(=O)N2 [SU6656] (first compound 2 µM, partner dose 0.4 µM) | 59
CCCCCCCCc1ccc(CCC(N)(CO)CO)cc1 [fingolimod] + OCCn1cc(-c2cnc3nnn(Cc4ccc5ncccc5c4)c3n2)cn1 [PF04217903] (first compound 2 µM, partner dose 1 µM) | 71.1
NC(=O)c1ccc(N(C(N)=O)c2c(F)cccc2F)nc1-c1ccc(F)cc1F + NC(=O)Nc1cc(-c2cccc(F)c2)sc1C(=O)N[C@H]1CCCNC1 [AZD7762] (first compound 0.4 µM, partner dose 0.02 µM) | 85.8
NC(=O)c1ccc(N(C(N)=O)c2c(F)cccc2F)nc1-c1ccc(F)cc1F + O=C(O)c1ccc(-c2c[nH]c3ncc(-c4ccccc4)cc23)cc1C1CCCC1 [GSK650394] (first compound 0.4 µM, partner dose 0.16 µM) | 85.7
CCCCCCCCc1ccc(CCC(N)(CO)CO)cc1 [fingolimod] + COc1cc(Nc2ncc(F)c(Nc3ccc4c(n3)NC(=O)C(C)(C)O4)n2)cc(OC)c1OC [Tamatinib] (first compound 2 µM, partner dose 0.4 µM) | 94.6
CC(C)(C)c1cnc(CSc2cnc(NC(=O)C3CCNCC3)s2)o1 + O=C(Nc1cccc(Cl)c1)Nc1ncc(CCNc2ncnc3ccsc23)s1 [SNS314] (first compound 0.01 µM, partner dose 0.0008 µM) | 67.9
Cc1ccc(NC(=O)c2cccc(N(C)C)c2)cc1NC(=O)c1ccc(O)cc1 + COc1cc2c(Oc3ccc4[nH]c(C)cc4c3F)ncnc2cc1OCCCN1CCCC1 [cediranib] (first compound 2 µM, partner dose 0.4 µM) | 83.2
NC(=O)c1ccc(N(C(N)=O)c2c(F)cccc2F)nc1-c1ccc(F)cc1F + C[C@@H]1CCN(C(=O)CC#N)C[C@@H]1N(C)c1ncnc2[nH]ccc12 [CP690550] (first compound 0.4 µM, partner dose 1 µM) | 122
NC(=O)c1ccc(N(C(N)=O)c2c(F)cccc2F)nc1-c1ccc(F)cc1F + CC(C)(C)c1cnc(CSc2cnc(NC(=O)C3CCNCC3)s2)o1 [SNS-032] (first compound 0.4 µM, partner dose 0.01 µM) | 137
CCCCCCCCc1ccc(CCC(N)(CO)CO)cc1 [fingolimod] + CC1(C)NC(=O)N(c2ccc([N+](=O)[O-])c(C(F)(F)F)c2)C1=O [nilutamide] (first compound 2 µM, partner dose 1 µM) | 78.9
Cc1ccc(NC(=O)c2cccc(N(C)C)c2)cc1NC(=O)c1ccc(O)cc1 + CO[C@@H]1[C@H](N(C)C(=O)c2ccccc2)C[C@H]2O[C@]1(C)n1c3ccccc3c3c4c(c5c6ccccc6n2c5c31)C(=O)NC4 [Midostaurin] (first compound 2 µM, partner dose 0.08 µM) | 71.6
CCCCCCCCc1ccc(CCC(N)(CO)CO)cc1 [fingolimod] + Cc1cc(N2CCOCC2)cc2[nH]c(-c3c(NC[C@@H](O)c4cccc(Cl)c4)cc[nH]c3=O)nc12 [BMS536924] (first compound 2 µM, partner dose 0.2 µM) | 54.3
CCCCCCCCc1ccc(CCC(N)(CO)CO)cc1 [fingolimod] + O=C(O)c1ccc(-c2c[nH]c3ncc(-c4ccccc4)cc23)cc1C1CCCC1 [GSK650394] (first compound 2 µM, partner dose 0.16 µM) | 88.3
Cc1ccc(NC(=O)c2cccc(N(C)C)c2)cc1NC(=O)c1ccc(O)cc1 + OCCn1cc(-c2cnc3nnn(Cc4ccc5ncccc5c4)c3n2)cn1 [PF04217903] (first compound 2 µM, partner dose 1 µM) | 94
NC(=O)c1ccc(N(C(N)=O)c2c(F)cccc2F)nc1-c1ccc(F)cc1F + C=CCn1c(=O)c2cnc(Nc3ccc(N4CCN(C)CC4)cc3)nc2n1-c1cccc(C(C)(C)O)n1 [MK1775] (first compound 0.4 µM, partner dose 0.02 µM) | 94.5
CC(C)(C)c1cnc(CSc2cnc(NC(=O)C3CCNCC3)s2)o1 + CN(NC(=O)CC(=O)NN(C)C(=S)c1ccccc1)C(=S)c1ccccc1 [STA4783] (first compound 0.01 µM, partner dose 0.006 µM) | 34

Compound | cell count [%]
Cc1ccc(NC(=O)c2cccc(N(C)C)c2)cc1NC(=O)c1ccc(O)cc1 + Cn1cncc1[C@@](N)(c1ccc(Cl)cc1)c1ccc2c(c1)c(-c1cccc(Cl)c1)cc(=O)n2C [tipifarnib] (first compound 2 µM, partner dose 0.01 µM) | 73.4
Cc1ccc(NC(=O)c2cccc(N(C)C)c2)cc1NC(=O)c1ccc(O)cc1 + NCC(=O)Nc1ccc(-n2nc(C(F)(F)F)cc2-c2ccc3c(ccc4ccccc43)c2)cc1 [OSU03012] (first compound 2 µM, partner dose 1 µM) | 42.1
CCCCCCCCc1ccc(CCC(N)(CO)CO)cc1 [fingolimod] + CN(NC(=O)CC(=O)NN(C)C(=S)c1ccccc1)C(=S)c1ccccc1 [STA4783] (first compound 2 µM, partner dose 0.006 µM) | 34.3
NC(=O)c1ccc(N(C(N)=O)c2c(F)cccc2F)nc1-c1ccc(F)cc1F + COc1cc2c(Oc3ccc4[nH]c(C)cc4c3F)ncnc2cc1OCCCN1CCCC1 [cediranib] (first compound 0.4 µM, partner dose 0.4 µM) | 101
NC(=O)c1ccc(N(C(N)=O)c2c(F)cccc2F)nc1-c1ccc(F)cc1F + O=C(Nc1cccc(Cl)c1)Nc1ncc(CCNc2ncnc3ccsc23)s1 [SNS314] (first compound 0.4 µM, partner dose 0.0008 µM) | 111
CC(C)(C)c1cnc(CSc2cnc(NC(=O)C3CCNCC3)s2)o1 + NC(=O)Nc1cc(-c2cccc(F)c2)sc1C(=O)N[C@H]1CCCNC1 [AZD7762] (first compound 0.01 µM, partner dose 0.02 µM) | 104
CN(NC(=O)CC(=O)NN(C)C(=S)c1ccccc1)C(=S)c1ccccc1 + COc1cc2c(Oc3ccc4[nH]c(C)cc4c3F)ncnc2cc1OCCCN1CCCC1 [cediranib] (first compound 0.006 µM, partner dose 0.4 µM) | 31.3
CCCCCCCCc1ccc(CCC(N)(CO)CO)cc1 [fingolimod] + C[C@@H]1CCN(C(=O)CC#N)C[C@@H]1N(C)c1ncnc2[nH]ccc12 [CP690550] (first compound 2 µM, partner dose 1 µM) | 50.9
CCCCCCCCc1ccc(CCC(N)(CO)CO)cc1 [fingolimod] + COc1cc2c(Oc3ccc4[nH]c(C)cc4c3F)ncnc2cc1OCCCN1CCCC1 [cediranib] (first compound 2 µM, partner dose 0.4 µM) | 55.8
CC(C)(C)c1cnc(CSc2cnc(NC(=O)C3CCNCC3)s2)o1 + NCC(=O)Nc1ccc(-n2nc(C(F)(F)F)cc2-c2ccc3c(ccc4ccccc43)c2)cc1 [OSU03012] (first compound 0.01 µM, partner dose 1 µM) | 46.6
CCCCCCCCc1ccc(CCC(N)(CO)CO)cc1 [fingolimod] + NCC(=O)Nc1ccc(-n2nc(C(F)(F)F)cc2-c2ccc3c(ccc4ccccc43)c2)cc1 [OSU03012] (first compound 2 µM, partner dose 1 µM) | 27.7
CCCCCCCCc1ccc(CCC(N)(CO)CO)cc1 [fingolimod] + NC(=O)Nc1cc(-c2cccc(F)c2)sc1C(=O)N[C@H]1CCCNC1 [AZD7762] (first compound 2 µM, partner dose 0.02 µM) | 55.1
CCCCCCCCc1ccc(CCC(N)(CO)CO)cc1 [fingolimod] + CO[C@@H]1[C@H](N(C)C(=O)c2ccccc2)C[C@H]2O[C@]1(C)n1c3ccccc3c3c4c(c5c6ccccc6n2c5c31)C(=O)NC4 [Midostaurin] (first compound 2 µM, partner dose 0.08 µM) | 75.4
Cc1ccc(NC(=O)c2cccc(N(C)C)c2)cc1NC(=O)c1ccc(O)cc1 + CN(C)S(=O)(=O)c1ccc2c(c1)/C(=C/c1cc3c([nH]1)CCCC3)C(=O)N2 [SU6656] (first compound 2 µM, partner dose 0.4 µM) | 93.1
NC(=O)c1ccc(N(C(N)=O)c2c(F)cccc2F)nc1-c1ccc(F)cc1F + OCCn1cc(-c2cnc3nnn(Cc4ccc5ncccc5c4)c3n2)cn1 [PF04217903] (first compound 0.4 µM, partner dose 1 µM) | 102
CC(C)(C)c1cnc(CSc2cnc(NC(=O)C3CCNCC3)s2)o1 + Cc1cc(N2CCOCC2)cc2[nH]c(-c3c(NC[C@@H](O)c4cccc(Cl)c4)cc[nH]c3=O)nc12 [BMS536924] (first compound 0.01 µM, partner dose 0.2 µM) | 87.6
NC(=O)c1ccc(N(C(N)=O)c2c(F)cccc2F)nc1-c1ccc(F)cc1F + NCC(=O)Nc1ccc(-n2nc(C(F)(F)F)cc2-c2ccc3c(ccc4ccccc43)c2)cc1 [OSU03012] (first compound 0.4 µM, partner dose 1 µM) | 42.1

Source: the supplement of paper PMC4604168 (melanoma cell lines)
